{"source": "PubChem BioAssay AID1476", "about": "(National Center for Advancing Translational Sciences (NCATS), 2009)", "note": "“And” between values parts separate entries of the source, which are not always exact repeats. Identical values can stand only once. In all, about 200,000 compounds went through this assay and about 4,500 (2.2%) were called active. The shares of active, inactive and inconclusive entries below differ from those in the screen. Calls follow the shape of the dose curve; as a rule, active = well fitted inhibition curve with a large enough effect; inconclusive = small, poorly fitted or top-dose-only effect, or effect the other way; inactive = flat fitted curve, though single readings scatter. Potencies beside an inconclusive call are fits to weak or partial responses and may not hold up. Potency is read from the fitted curve at half-maximal effect; tags tell the direction and shape of the fitted curve."}
{"target": "Cruzipain (Trypanosoma cruzi) (UniProt P25779)", "sequence (P25779 whole entry, looked up)": "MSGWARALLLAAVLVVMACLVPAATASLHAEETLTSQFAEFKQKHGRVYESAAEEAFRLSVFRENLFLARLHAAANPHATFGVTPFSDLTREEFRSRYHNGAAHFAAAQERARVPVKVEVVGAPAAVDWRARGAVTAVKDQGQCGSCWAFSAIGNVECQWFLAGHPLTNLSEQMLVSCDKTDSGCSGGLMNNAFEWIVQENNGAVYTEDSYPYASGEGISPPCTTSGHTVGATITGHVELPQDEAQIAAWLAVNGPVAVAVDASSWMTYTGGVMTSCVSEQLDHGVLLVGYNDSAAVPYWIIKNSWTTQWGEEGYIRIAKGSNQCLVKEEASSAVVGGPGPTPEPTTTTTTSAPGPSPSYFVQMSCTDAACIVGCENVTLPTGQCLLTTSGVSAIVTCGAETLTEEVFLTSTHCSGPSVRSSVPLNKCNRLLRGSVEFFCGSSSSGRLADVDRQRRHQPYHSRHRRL", "test": "qHTS Assay for Promiscuous and Specific Inhibitors of Cruzain (without detergent); also: nearly all actives have a fitted effect of over 40% in size;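 as to max response, negative = inhibition: plate controls were enzyme without inhibitor for no effect and buffer without enzyme for full effect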", "settings": "purified cruzain, Z-FR-AMC fluorescence, no detergent", "in_short": "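Purified cruzain at 1.5 nM, pre-incubated 15 min with compound at room temperature in 100 mM sodium acetate pH 5.5, 5 mM DTT, 0.00005% Triton X-100. Reaction started with 2 uM Z-FR-AMC; AMC fluorescence increase over 60 s gives rate.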"}
{"smiles": "COc1ccc(S(=O)(=O)N(CCCN2CCCC2=O)Cc2cc3cc(C)c(C)cc3[nH]c2=O)cc1", "Potency": "inconclusive: 31.6 µM [activator, partial curve]"}
{"smiles": "Cc1ccc(C(=O)COC(=O)C2CC(=O)N(c3nc(-c4ccccc4)cs3)C2)cc1", "note": "(centres undefined)", "Potency": "inconclusive: 31.6 µM [inhibitor, single point]"}
{"smiles": "CCOC(=O)c1cccc(NS(=O)(=O)c2cn(C)c(C)n2)c1", "max response, negative = inhibition": "inactive: 6.22%"}
{"smiles": "COc1ccc(CNC(=O)c2ccc3c(c2)nc2n3CCCCC2)c(OC)c1", "max response, negative = inhibition": "inactive: -12.1%"}
{"smiles": "CCOc1ccccc1CNC(=O)c1cc(-c2ccc(OC)cc2)nc2ccc(C(C)C)cc12", "max response, negative = inhibition": "inactive: -8.54%"}
{"smiles": "CCOC(=O)c1cc(OCC(=O)NC(C)C(C)C)cc(C(=O)OCC)c1", "note": "(centres undefined)", "Potency": "inconclusive: 25.1 µM [activator, single point]"}
{"smiles": "COCCn1c(=O)c(-c2ccc(Cl)cc2)nc2cnc(N3CCNCC3)nc21", "Potency": "inconclusive: 15.8 µM [activator, partial curve]"}
{"smiles": "O=C(c1ccc2c(c1)N(Cc1ccccc1)C(=O)c1ccccc1S2(=O)=O)N1CCN(c2ccccn2)CC1", "max response, negative = inhibition": "inactive: 15.6%"}
{"smiles": "CCOc1ccc(OCC)c(NC(=O)CCc2c(C)nc3c(c2C)c(=O)n(C)c(=O)n3C)c1", "max response, negative = inhibition": "inactive: 7.01%"}
{"smiles": "Cc1nc2sc(C(c3ccc(C(C)C)cc3)N3CCN(CCO)CC3)c(O)n2n1", "note": "(centres undefined)", "Potency": "inconclusive: 25.1 µM [activator, single point]"}
{"smiles": "Cc1c(OC(=O)CNC(=O)OC(C)(C)C)ccc2c3c(c(=O)oc12)CCC3", "Potency": "inconclusive: 25.1 µM [activator, single point]"}
{"smiles": "COc1ccc(-n2nc3c(N4CCCC(C(=O)NCCc5ccc(C)cc5)C4)nnc(C)c3c2C)cc1", "note": "(centres undefined)", "max response, negative = inhibition": "inactive: 0.561%"}
{"smiles": "Cc1ccc(OC(=O)c2cccc(S(=O)(=O)N(C)C)c2)c(-n2nc3ccccc3n2)c1", "Potency": "inconclusive: 39.8 µM [inhibitor, single point]"}
{"smiles": "Cc1ccc(Cl)cc1N1CCN(C(=O)Cc2ccc(-n3c(=O)[nH]c4ccsc4c3=O)cc2)CC1", "Potency": "inconclusive: 39.8 µM [activator, single point]"}
{"smiles": "COc1ccc(NC(=O)COCc2cc(-c3cccs3)on2)cc1", "max response, negative = inhibition": "inactive: 3.75%"}
{"smiles": "Cc1ccccc1C1C=C(c2ccc(Cl)cc2)Nc2nnnn21", "note": "(centres undefined)", "max response, negative = inhibition": "inactive: -2.97%"}
{"smiles": "Cc1ccc(C(=O)CSc2nc3ccccc3c(=O)n2N)o1", "Potency": "inconclusive: 39.8 µM [inhibitor, single point]"}
{"smiles": "CN(C)CCCc1c2ccccc2nc2ccc(Cl)cc12", "max response, negative = inhibition": "inactive: 3.38%"}
{"smiles": "O=C1CC(C(=O)Nc2ccccc2)S/C(=N\\N=C\\c2ccco2)N1", "note": "(centres undefined)", "Potency": "inconclusive: 39.8 µM [inhibitor, single point]"}
{"smiles": "CCC(C)(C)C1CCC2(CC1)NC(=O)N(CC(=O)Nc1nc(-c3ccc(C)cc3)cs1)C2=O", "note": "(centres undefined)", "Potency": "inconclusive: 20 µM [inhibitor, partial curve, poor fit]"}
{"smiles": "COc1ccc(-n2cc(-c3ccccc3)nc2SCC(=O)Nc2ccccc2)cc1Cl", "Potency": "inconclusive: 39.8 µM [inhibitor, single point]"}
{"smiles": "CC1CCCN(c2ccc(C(=O)OCn3nnc4ccccc4c3=O)cc2[N+](=O)[O-])C1", "note": "(centres undefined)", "Potency": "inconclusive: 39.8 µM [inhibitor, single point]"}
{"smiles": "O=C(N/N=C/c1ccc(OC(=O)c2cccs2)cc1)c1cccc(F)c1", "Potency": "active: 20 µM"}
{"smiles": "CC(C)CNc1ncnc2c1sc1nc(N3CCOCC3)c3c(c12)CC(C)(C)OC3", "Potency": "inconclusive: 31.6 µM [activator, single point]"}
{"smiles": "COCC1=C2c3ccccc3[C@H](C[N+](=O)[O-])C(C(=O)OC)(C(=O)OC)C[C@@H]2n2c(=O)n(-c3ccccc3)c(=O)n2C1", "max response, negative = inhibition": "inactive: 8.77% and inactive: -2.17% and inactive: -1.96%"}
{"smiles": "COc1cc(-c2nnc(CSc3nc4ccccc4s3)o2)cc(OC)c1OC", "Potency": "inconclusive: 39.8 µM [activator, single point]"}
{"smiles": "C/C(=N\\NC(=O)COc1ccccc1F)c1cc2ccccc2o1", "Potency": "inconclusive: 31.6 µM [inhibitor, single point]"}
{"smiles": "Cc1ccc(C)c(NS(=O)(=O)c2cc3c(cc2Cl)NC(=O)CO3)c1", "max response, negative = inhibition": "inactive: -9.25%"}
{"smiles": "CCOC(=O)c1ccc(NC(=O)CC2C(=O)N(c3ccc(F)cc3)C(=O)N2Cc2ccc3c(c2)OCO3)cc1", "note": "(centres undefined)", "max response, negative = inhibition": "inactive: 13.6%"}
{"smiles": "COc1ccc(NC(=O)c2nc3nc(C)cc(C(F)F)n3n2)c(C)c1", "max response, negative = inhibition": "inactive: -3.91%"}
{"smiles": "O=C(Oc1cccc(NC(=O)c2ccco2)c1)c1ccc(Br)c(S(=O)(=O)N2CCCCC2)c1", "Potency": "inconclusive: 39.8 µM [inhibitor, single point]"}
{"smiles": "COc1ccc(C2=NN(CC(=O)NCCCN(C)c3ccccc3)C(=O)CC2)cc1", "max response, negative = inhibition": "inactive: 2.24%"}
{"smiles": "COC(=O)c1cc2sc(C)cc2n1Cc1ccc(Br)cc1F", "Potency": "inconclusive: 39.8 µM [inhibitor, single point]"}
{"smiles": "Cc1cc(-c2ccccc2)nc(N2CCC(C(=O)NCc3ccccc3Cl)CC2)n1", "Potency": "inconclusive: 39.8 µM [inhibitor, single point]"}
{"smiles": "O=C(O)c1cccc(Cn2c(Cl)c(/C=N/NC(=O)c3ccccc3)sc2=O)c1", "max response, negative = inhibition": "inactive: -16.2%"}
{"smiles": "Cc1cc(NC(=O)COc2ccc3oc4ccccc4c3c2)no1", "Potency": "inconclusive: 39.8 µM [inhibitor, single point]"}
{"smiles": "CCCCOc1ccc(C(=O)N(Cc2ccc(C(C)C)cc2)C2CCS(=O)(=O)C2)cc1", "note": "(centres undefined)", "Potency": "inconclusive: 15.8 µM [activator, partial curve]"}
{"smiles": "O=C(Nc1ncc(Cc2ccccc2Cl)s1)c1ccc([N+](=O)[O-])cc1", "Potency": "inconclusive: 39.8 µM [inhibitor, single point]"}
{"smiles": "CCOc1ccc(NC(=S)N(CCc2c(C)[nH]c3ccc(C)cc23)Cc2ccco2)cc1", "Potency": "active: 3.16 µM"}
{"smiles": "NC(N)=NCCC[C@H](NC(=O)CC1(CC(=O)N2CCN(C3c4ccccc4NC(=O)c4ccccc43)CC2)CCCC1)C(=O)NCCn1c(=O)n(-c2ccccc2)n(-c2ccccc2)c1=O", "note": "(some centres undefined)", "max response, negative = inhibition": "inactive: 4.13%"}
{"smiles": "CC(=O)N1CCc2c(sc3c2c(=O)n(-c2ccccc2C)c(=O)n3Cc2cccc(F)c2)C1", "Potency": "inconclusive: 39.8 µM [activator, single point]"}
{"smiles": "COCCCNC(=O)c1sc2nc(C)c(C(=O)Nc3ccc(C)cc3C)c(-c3ccc(Cl)cc3)c2c1N", "Potency": "inconclusive: 12.6 µM [activator, partial curve]"}
{"smiles": "COc1ccc(-c2csc(NC(=O)c3nc(-c4ccccc4)oc3C)n2)cc1", "Potency": "active: 7.94 µM"}
{"smiles": "Clc1ccc(-c2cn3nc4c(nc3n2)CCCC4)cc1", "Potency": "inconclusive: 39.8 µM [inhibitor, single point]"}
{"smiles": "Cc1nc(SCC(=O)c2cc3ccccc3oc2=O)c(C#N)c(-c2ccccc2)c1C(=O)Nc1ccccc1", "Potency": "active: 20 µM"}
{"smiles": "Cc1cc(C)c(NC(=O)c2cc3c(=O)n4ccccc4nc3n2C)c(C)c1", "max response, negative = inhibition": "inactive: -4.47%"}
{"smiles": "Cc1ccc2nc(C)cc(C(=O)OCC(=O)c3ccc(Cl)c([N+](=O)[O-])c3)c2c1", "Potency": "inconclusive: 15.8 µM [inhibitor, partial curve]"}
{"smiles": "N#Cc1cc(S(=O)(=O)c2ccccc2)c(N)[nH]c1=O", "Potency": "inconclusive: 39.8 µM [inhibitor, single point]"}
{"smiles": "COc1ccc(S(=O)(=O)Nc2cc3c(cc2NCc2ccccc2)n(C)c(=O)n3C)cc1OC", "Potency": "inconclusive: 39.8 µM [activator, single point]"}
{"smiles": "Cn1cc(-c2nnc(-c3ccccc3)o2)c2ccccc21", "Potency": "inconclusive: 39.8 µM [activator, single point]"}
{"smiles": "Cc1ccc(N2CCN(C(=S)c3ccc(N(C)C)cc3)CC2)cc1", "Potency": "active: 20 µM"}
{"smiles": "O=C(NCCc1nc2ccccc2[nH]1)c1ccc(F)cc1", "Potency": "active: 1.26 µM"}
{"smiles": "CCOC(=O)c1sc(NC(=O)/C=C/c2c(F)cccc2Cl)nc1C", "Potency": "active: 12.6 µM"}
{"smiles": "CCN(c1ccccc1)S(=O)(=O)c1ccc(NC(=O)c2cc(=O)c3cc(C)c(C)cc3o2)cc1", "max response, negative = inhibition": "inactive: -7.42%"}
{"smiles": "Cc1cc2cc(CN(CCCO)S(=O)(=O)c3cccc4nsnc34)c(=O)[nH]c2cc1C", "Potency": "inconclusive: 39.8 µM [activator, single point]"}
{"smiles": "C#CCn1c(=NC(=O)c2ccccc2[N+](=O)[O-])sc2cc(S(C)(=O)=O)ccc21", "Potency": "inconclusive: 25.1 µM [inhibitor, single point]"}
{"smiles": "CCn1cc(C(=O)N2CCN(c3cc(C)ccc3C)CC2)c(=O)c2cc(S(=O)(=O)N(C)C3CCCCC3)ccc21", "Potency": "inconclusive: 6.31 µM [activator, single point]"}
{"smiles": "COc1cccc(N/C(SCc2ccccc2C)=C(/C#N)C(=O)NCc2cccs2)c1", "Potency": "inconclusive: 39.8 µM [inhibitor, single point]"}
{"smiles": "O=c1c2ccccc2n(Cc2cccc(F)c2)c(=O)n1Cc1ccccc1Cl", "Potency": "inconclusive: 25.1 µM [inhibitor, single point]"}
{"smiles": "COc1cccc(CNC(=O)CCCN2C(=O)CSc3c2c(C)nn3-c2ccccc2)c1", "Potency": "inconclusive: 25.1 µM [activator, single point]"}
{"smiles": "CCOc1ccc(N2C(=O)N(Cc3ccc(C)cc3C)c3ccccc3S2(=O)=O)cc1", "Potency": "active: 25.1 µM"}
{"smiles": "O=C(O)CCC(=O)N1CCc2cc(S(=O)(=O)N3CC=C(c4ccccc4)CC3)ccc21", "Potency": "inconclusive: 25.1 µM [activator, single point]"}
{"smiles": "CCc1cccc(NC(=O)c2ccc(CN3C(=O)C(C)=C(c4ccc(OC)cc4)S3(=O)=O)cc2)c1", "Potency": "active: 25.1 µM"}
{"smiles": "O=C(NC(=S)Nc1nc(-c2cccc3ccccc23)cs1)c1cc2ccccc2o1", "Potency": "active: 2.51 µM"}
